Data taken from ChEMBL document CHEMBL5308541, “MAIP: An Open-Source Tool to Enrich High-Throughput Screening Output and Identify Novel, Druglike Molecules with Antimalarial Activity” (ACS Med Chem Lett, 2023).
In all, about 150,000 compounds went through this assay and about 540 (0.36%) showed an effect of 50% or more. This is one part of the list.

What follows are compounds tested on Plasmodium falciparum (assay: Primary screen in NF54 nanoGlo assay, in single point, at 2uM, 72h; a lower Z score goes with more inhibition). Conditions: timepoint 72 hour.
Type: functional, Erythrocyte
With `Cc1nc(NCC(C)(C)c2ccncc2)cc(C(F)(F)F)n1` the “% Inhibition” value was -1% and the Z score was 0.12. For `COCCn1cnnc1CN(C)C(=O)c1ccc2c3c([nH]c2c1)CCCC3`, the “% Inhibition” value was -1% and the Z score was 0.3. For `CS(=O)(=O)CCN1CCC(Nc2ccc3cc[nH]c3n2)CC1`, the “% Inhibition” value was -4% and the Z score was 0.77. For `CC1CN(c2cc(C(N)=O)nc(N3CCCOC(C)C3)n2)CCCO1` (configuration not stated), the “% Inhibition” value was -3% and the Z score was 0.49. With `O=C(NCC[C@H]1CCCN(C2CCCCCC2)C1)C1CCNCC1` the “% Inhibition” value was 1% and the Z score was -0.26. With `Cc1cccc2c(-c3n[nH]c4ncnc(N)c34)c[nH]c12` the “% Inhibition” value was -3% and the Z score was 0.47. With `COC1CCN([C@H]2CCC[C@H]2NCCC(=O)N2CCN(C)CC2)C1` (some centres not stated) the “% Inhibition” value was 1% and the Z score was -0.21. With `O[C@H]1CCCC[C@@H]1Nc1ccc(-c2cnn3ncccc23)cn1` the “% Inhibition” value was -2% and the Z score was 0.33. In the case of `CN(C)C1CCN(C(C)(C)CNCc2cnc(N3CCCC3)nc2)CC1`, the “% Inhibition” value is reported as -2% and the Z score is reported as 0.27. `C[C@H](NC(=O)c1ccc(N2CCC(NCCc3c[nH]c4ccccc34)CC2)cc1)c1ccccc1` was tested, and the “% Inhibition” value was -8% and the Z score was 1.48. With `c1cnc2c(-c3cc(NC4CCCC4)nc4[nH]ccc34)cnn2c1` the “% Inhibition” value was -12% and the Z score was 2.03. In the case of `CON(C)S(=O)(=O)c1cccc(C(=O)Nc2ccc3[nH]c(-c4cc(F)ccc4F)nc3c2)c1`, the “% Inhibition” value is reported as -4% and the Z score is reported as 0.62. For `CCc1cc(C(=O)N2CCC[C@H](N(C)C(=O)c3cc(F)cc(F)c3)CC2)no1`, the “% Inhibition” value was 10% and the Z score was -1.71. In the case of `Cc1cc(Nc2nccc(-n3cccn3)n2)ccc1N(C)C`, the “% Inhibition” value is reported as -9% and the Z score is reported as 1.64. `CN1CCN(c2ncc(-c3nc4cccc(Cl)c4[nH]3)cn2)CC1` was tested, and the “% Inhibition” value was 10% and the Z score was -1.73. With `Cc1ccc(C2(O)CCN(C(=O)C[C@H]3CCCOC3)CC2)nc1` the “% Inhibition” value was 6% and the Z score was -1.25. `CC(C)n1cc(CN2CCOc3ccc(CCC(=O)N4CCOCC4)cc3C2)c2ccccc21` was tested, and the “% Inhibition” value was -11% and the Z score was 1.94. In the case of `O=C(c1ccc2cccnc2c1O)N1CCC[C@H](Nc2cccc(F)c2)C1`, the “% Inhibition” value is reported as 23% and the Z score is reported as -3.54. With `O=C(NCCNc1ccnc2ccncc12)c1ccc(C(F)(F)F)cc1` the “% Inhibition” value was 26% and the Z score was -4.62. `Cc1ccc(C(=O)Nc2cccc(C(F)(F)F)c2)cc1NCc1csc(-c2cnn(C)c2)n1` was tested, and the “% Inhibition” value was -5% and the Z score was 1.17. In the case of `Cc1n[nH]cc1C1CCN(C(=O)c2ccnn2C(F)F)CC1`, the “% Inhibition” value is reported as -11% and the Z score is reported as 1.62. With `O[C@H]1C[C@](CNc2ncnc3[nH]ccc23)(c2ccccc2)C1` the “% Inhibition” value was 11% and the Z score was -1.89. In the case of `CN(CCn1ccnc1)C[C@@H]1CCCN2CCCC[C@H]12`, the “% Inhibition” value is reported as 4% and the Z score is reported as -0.61. For `O=C(Nc1ccc(Oc2cccnc2)cc1)N1CCN([C@H]2CCNC2)CC1`, the “% Inhibition” value was -5% and the Z score was 0.86. For `COC[C@H](C)Nc1ccccc1NC(=O)c1cccc(Nc2cnccn2)c1`, the “% Inhibition” value was -13% and the Z score was 2.73. In the case of `COc1ccc2c(c1)sc1nc(-c3cccc(O)c3)c(Nc3cccc(C)c3)n12`, the “% Inhibition” value is reported as -5% and the Z score is reported as 0.78. `CN1CCN(CC2(C)CCN(C(=O)c3cnc4cnccc4c3)CC2)CC1` was tested, and the “% Inhibition” value was -7% and the Z score was 1.08. For `N#C[C@H]1CCCN(C(=O)NCC2CCN(CCc3ccccc3)CC2)C1`, the “% Inhibition” value was 7% and the Z score was -1.55. For `Cc1cccc(-c2nccc(Nc3cccc(C(=O)N4CCC(N5CCCCC5)CC4)c3)n2)c1`, the “% Inhibition” value was -5% and the Z score was 0.85. For `O=C(c1cc2sccc2[nH]1)N1CCC(Nc2nccs2)CC1`, the “% Inhibition” value was -15% and the Z score was 2.96. With `CN(C)C(=O)CN1CCC(NC2CCN(Cc3ccccc3)CC2)C(O)C1` (configuration not stated) the “% Inhibition” value was 1% and the Z score was -0.17. `CCOc1c(Cl)cccc1CC(=O)N1CCOC2CNCC21` (configuration not stated) was tested, and the “% Inhibition” value was -3% and the Z score was 0.47. In the case of `CCC(C)C(NC(=O)C1Nc2ccccc2NC1=O)C(=O)NC1CC(C)(C)NC(C)(C)C1` (configuration not stated), the “% Inhibition” value is reported as -2% and the Z score is reported as 0.33. In the case of `CNc1ccnc(N2CC(CO)C(CN3CCC(CO)CC3)C2)n1` (configuration not stated), the “% Inhibition” value is reported as -4% and the Z score is reported as 0.75. In the case of `CC(C)(C)OC(=O)NC[C@H](Nc1cncc(-n2cccn2)n1)C1CCCCC1`, the “% Inhibition” value is reported as 8% and the Z score is reported as -1.29. For `Fc1cc(F)cc(-n2ncc3c2CCC[C@@H]3NC2CCN(Cc3cccnc3)CC2)c1`, the “% Inhibition” value was -9% and the Z score was 1.53. In the case of `CN1CCN(CC2CN(Cc3nc(-c4ccccc4)cs3)CC2CO)CC1` (configuration not stated), the “% Inhibition” value is reported as 3% and the Z score is reported as -0.58. `Nc1cncc(-c2ccc(C(=O)N[C@@H]3CCC[C@H]3OCc3ccccc3)cc2)c1` was tested, and the “% Inhibition” value was -3% and the Z score was 0.55. For `Cn1cc(CNC2CC(C)(C)NC(C)(C)C2)c(-c2cccs2)n1`, the “% Inhibition” value was 5% and the Z score was -0.99. For `Cc1cc(C)n([C@H]2CCN(C(=O)NC3CCN(C4CCN(C)CC4)CC3)C2)n1`, the “% Inhibition” value was -3% and the Z score was 0.66. In the case of `COc1cc(N2CCC(N3CCN(c4ccccn4)CC3)C(O)C2)nc(N)n1` (configuration not stated), the “% Inhibition” value is reported as 0% and the Z score is reported as -0.03. With `O=C([C@@H]1CCCNC1)N1CCC(c2cc(C3CCNCC3)n[nH]2)CC1` the “% Inhibition” value was 0% and the Z score was 0.04. For `COc1cncc(-c2ccc(C(=O)N3CCC4(O)CCNCC4C3)cc2)c1` (configuration not stated), the “% Inhibition” value was -3% and the Z score was 0.57. With `c1cc(NCc2cccc3[nH]ccc23)cc(Oc2cnccn2)c1` the “% Inhibition” value was -3% and the Z score was 0.59. With `Fc1cnccc1NCC1CCN(C2CCCC2)CC1` the “% Inhibition” value was 0% and the Z score was -0.05. `Cc1cccc(NC2CCN(CCN3CCOC[C@@H]3C)CC2)n1` was tested, and the “% Inhibition” value was 2% and the Z score was -0.3. For `COc1ccc(OCc2cc(C(=O)N[C@H]3CCCCNC3=O)no2)c2ccccc12`, the “% Inhibition” value was 3% and the Z score was -0.64. In the case of `C=C1CC23CC4C5C6(C)CC(OC(C)=O)CC57C2C(O)C1C(O)C3(O)C7N4C6` (configuration not stated), the “% Inhibition” value is reported as -15% and the Z score is reported as 2.61. With `Fc1ccccc1OC1CCN(Cc2cccc(OCCN3CCOCC3)c2)CC1` the “% Inhibition” value was -7% and the Z score was 1.53. With `Oc1nc2cc(Cl)ccc2cc1CN1CC(O)C(Cc2ccnc3ccccc23)C1` (configuration not stated) the “% Inhibition” value was -1% and the Z score was 0.15. With `NC(=O)[C@H](CNc1ncnc2[nH]ccc12)Cc1ccc(F)cc1` the “% Inhibition” value was 21% and the Z score was -3.73. `CN(C)[C@H]1CCN(C(=O)c2ccc(-c3ncnc4[nH]ccc34)cc2)C1` was tested, and the “% Inhibition” value was -3% and the Z score was 0.59. With `O=C(O)c1cc(NS(=O)(=O)C[C@H]2CCCO2)cc(C(F)(F)F)c1` the “% Inhibition” value was -6% and the Z score was 1.36. For `N#Cc1c(N)nc2c(c1N)[C@@H](c1ccccc1)c1ccc3ccccc3c1O2`, the “% Inhibition” value was 0% and the Z score was -0.08. In the case of `CC(C)COC(=O)N[C@H]1CN[C@H](C(=O)N2CCN(c3ccncc3)CC2)C1`, the “% Inhibition” value is reported as -10% and the Z score is reported as 2.14. For `COc1cc(C(=O)O)cc(C(=O)N2CC3CC(O)C(O)CC3C2)c1` (configuration not stated), the “% Inhibition” value was 3% and the Z score was -0.65. In the case of `COCCn1ccc(NCc2cccc(-c3ccncc3)c2)n1`, the “% Inhibition” value is reported as -8% and the Z score is reported as 1.43. `Clc1ccccc1C1(c2ccnc(NCCN3CCCC3)n2)CCNCC1` was tested, and the “% Inhibition” value was -11% and the Z score was 1.88. In the case of `Cn1cc(-c2cncc(C(=O)NCCC3CCC(F)(F)CC3)c2)cn1`, the “% Inhibition” value is reported as 0% and the Z score is reported as 0.03. For `C[C@H](Nc1cc(C2CCNCC2)ncn1)c1ccc2c(c1)OCCCO2`, the “% Inhibition” value was -2% and the Z score was 0.29. With `CC(=O)N1CCC(N[C@H]2CC(C)(C)[C@@H]3C[C@@](C)(O)CC[C@]23CCC(=O)NCCc2c[nH]c3ccccc23)CC1` the “% Inhibition” value was 4% and the Z score was -0.64. In the case of `Cc1cc(CC2CN(Cc3cc(F)cc(Cl)c3)CC2O)on1` (configuration not stated), the “% Inhibition” value is reported as -7% and the Z score is reported as 1.56. For `Cc1cccc(OC2CCN(C(=O)c3cc4ccc(Cl)cc4[nH]3)CC2)n1`, the “% Inhibition” value was 2% and the Z score was -0.49. For `Cc1nc(=S)sn1-c1nc(Nc2ccccc2)nc(Nc2ccccc2)n1`, the “% Inhibition” value was -4% and the Z score was 0.68. In the case of `CN(C(=O)CC1CCOC1)C1CS(=O)(=O)c2ccc(Cl)cc21` (configuration not stated), the “% Inhibition” value is reported as -3% and the Z score is reported as 0.61. For `O=C(c1cc(-c2ccc(F)cc2)c[nH]1)N1CC[C@H](Oc2cccc3cccnc23)C1`, the “% Inhibition” value was -12% and the Z score was 2.14. With `O=C(c1ccc(-c2ccncc2)cc1)N1CCC(O)(CN2CCCC2)CC1` the “% Inhibition” value was -5% and the Z score was 1.05. In the case of `CN1CCN(c2cc(NC3CCC(C(F)(F)F)CC3)ncn2)CC1=O` (configuration not stated), the “% Inhibition” value is reported as -13% and the Z score is reported as 2.24. With `Cc1noc(-c2ccc(N[C@@H](C)c3cc(F)ccc3N3CCC(O)CC3)nc2)n1` the “% Inhibition” value was 3% and the Z score was -0.54. For `CC(CNc1nc(NCC(C)N2CCOCC2)c2cc(Cl)ccc2n1)N1CCOCC1` (configuration not stated), the “% Inhibition” value was 78% and the Z score was -13.62. With `CNc1nc(NCc2cc(C)cc3c(C)c(-c4ccccc4)[nH]c23)ncc1F` the “% Inhibition” value was -2% and the Z score was 0.43. `COc1cc2nc(N3CC4CNCC4(CN(C)C)C3)nc(N)c2cc1OC` (configuration not stated) was tested, and the “% Inhibition” value was 5% and the Z score was -0.96. With `Cc1ccc(CCC(=O)Oc2ccc(-c3nncs3)cc2)c(C)c1` the “% Inhibition” value was -6% and the Z score was 1.09. With `O=C(NCC1CCN(CCN2CCOCC2)CC1)c1ccc(-n2cccn2)cc1` the “% Inhibition” value was 2% and the Z score was -0.31. For `O[C@@]1(CN2CCCN(CCCc3ccccc3)CC2)CCNC1`, the “% Inhibition” value was -1% and the Z score was 0.22. For `OCC1CCCCCC1NC1CCN(CCC(F)(F)F)CC1` (configuration not stated), the “% Inhibition” value was -7% and the Z score was 1.47. In the case of `O=C1C[C@H](NC(=O)C2CCN(C(=O)C3CCCC3)CC2)c2ccccc2N1`, the “% Inhibition” value is reported as -9% and the Z score is reported as 1.55. For `Cc1ccccc1CN1CCC(CNc2c3c(nc4ccccc24)CCC3)CC1`, the “% Inhibition” value was 94% and the Z score was -16.23. In the case of `COc1ccc(CN2CC[C@@H]2CNC2CCN(CC3CC3)CC2)cc1`, the “% Inhibition” value is reported as 11% and the Z score is reported as -2.13. For `CN(C)C1CCN(CCNC2CCCCCCC2)CC1`, the “% Inhibition” value was 2% and the Z score was -0.42. For `CC(C)N(CCN(C)C)c1ncncc1Br`, the “% Inhibition” value was 3% and the Z score was -0.68.
